Reference: PubChem BioAssay AID1671194 (National Center for Advancing Translational Sciences (NCATS), 2021)
About 240 (0.17%) of roughly 140,000 compounds were called active. Inconclusive results, whose numbers are uncertain, are shown with a selection of clear calls. The call rests on the fitted dose curve; in most records, active means well fitted inhibition curve with a large enough effect; inconclusive means small, poorly fitted or top-dose-only effect; inactive means no such curve, though single readings can be large or run the other way. Potencies of inconclusive entries are doubtful fits and often do not repeat.

Assay: Primary qHTS assay for inhibitors of alpha-synuclein gene (SNCA) expression; further: nearly all actives have a fitted effect of over 45% in size;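 on activity change, negative = inhibition: plate controls were DMSO cells for no effect and cell-free wells for full effect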
Settings: HEK-293 SNCA-luciferase knock-in, luminescence, 24 h; activity change, negative = inhibition: at 57.2 µM (top of the series) unless noted
Potency means the concentration at half of the fitted maximal effect; tags describe the fitted curve by direction and shape.

Question: For `O=C(c1ccc(F)cc1F)N1CCN(c2cc(-c3ccc(F)cc3)[nH]n2)CC1`, which “activity change, negative = inhibition” value is on record?
Answer: inactive: -15.9%

Question: For `CCNc1nccc(N2CCC(CC(=O)NCc3ccccc3F)CC2)n1`, which Potency is on record?
Answer: inconclusive: 28.2 µM [inhibitor, single point]

Question: With `COc1cccc(S(=O)(=O)N2CCC(n3cnnc3C3CC3)CC2)c1` as the compound, how does the Potency read?
Answer: inconclusive: 10 µM [inhibitor, partial curve, poor fit]

Question: For `CN(C)c1cc(=O)c2ccnc(-c3ccc(O)c(F)c3)c2o1`, which “activity change, negative = inhibition” value is on record?
Answer: inactive: 56.2% [at 87.6 µM]

Question: With `COc1ccc(C(=O)N[C@@H]2CCC[C@@H]2C(=O)NCCCN2CCOCC2)cc1` as the compound, how does the Potency read?
Answer: inconclusive: 10 µM [inhibitor, partial curve, poor fit]

Question: With `O=C(NCc1ccco1)c1ccc2c(c1)CC(=O)N2Cc1cccc(F)c1` as the compound, how does the “activity change, negative = inhibition” value read?
Answer: inactive: 27.2%

Question: Which Potency does the source give for `COc1ccc(S(=O)(=O)N2CCN(CC(=O)Nc3ccc(Cl)c(C(F)(F)F)c3)CC2)cc1` here?
Answer: inconclusive: 39.8 µM [inhibitor, single point]

Question: With `COc1ccc(CNC(=O)c2cc3cccc4c3n2CC(C)S4)c(OC)c1` (centres undefined) as the compound, how does the Potency read?
Answer: inconclusive: 10 µM [inhibitor, partial curve, poor fit]

Question: With `Fc1ccccc1CN1CCNc2cnc(Nc3ccccc3)cc2C1` as the compound, how does the Potency read?
Answer: inconclusive: 25.1 µM [inhibitor, partial curve]

Question: With `O=C(CSc1ncc(CO)n1Cc1ccc(Cl)cc1)NCc1ccc(F)cc1` as the compound, how does the Potency read?
Answer: inconclusive: 3.98 µM [inhibitor, single point]

Question: For `c1ccc(COc2ccccc2Cc2nc(-c3cccnn3)no2)cc1`, which “activity change, negative = inhibition” value is on record?
Answer: inactive: -6.75%

Question: Which Potency does the source give for `CC(C)CN1C(=O)c2cccn2CC1C(=O)NCc1ccc(Cl)cc1` (centres undefined) here?
Answer: inconclusive: 3.16 µM [inhibitor, full curve, poor fit]

Question: Which Potency does the source give for `COc1ccc(N(Cc2cccs2)C(=O)COc2cc(C)c(Cl)c(C)c2)cc1` here?
Answer: inconclusive: 14.1 µM [inhibitor, single point]

Question: With `CCOc1ccc2nc(NC(=O)c3cc(=O)c4cc(C)cc(C)c4o3)sc2c1` as the compound, how does the Potency read?
Answer: inconclusive: 6.31 µM [inhibitor, single point]

Question: With `COc1ccccc1-c1cccc(C(=O)N2CCN(C(=O)c3ccccc3C)CC2)c1` as the compound, how does the “activity change, negative = inhibition” value read?
Answer: inactive: -9.43%

Question: With `O=C(CCC1CCN(c2cc(NC3CC3)ncn2)CC1)NCc1ccccc1Cl` as the compound, how does the Potency read?
Answer: active: 8.91 µM

Question: Which Potency does the source give for `Cc1nc(N2CCOCC2)c2c(C(=O)N3CCN(c4cccc(C)c4C)CC3)c(C)oc2n1` here?
Answer: inconclusive: 39.8 µM [inhibitor, single point]

Question: For `CCOc1ccc2oc(=O)cc(CN3CCN(c4ccccc4)CC3)c2c1`, which “activity change, negative = inhibition” value is on record?
Answer: inactive: -15.2%

Question: For `CCCc1nc(C(=O)N2C[C@H](c3cccc(OC)c3)[C@@H](N)C2)cs1`, which “activity change, negative = inhibition” value is on record?
Answer: inactive: 13.5%
